B1: glmS ribozyme (parent)
chain: AUAAAAGCGCCAGAACUACAGAAAUGUAGUUGACGAGGAGGAGGUUUAUCGAAUUUUCGGCGGAUGCCUCCAAA

± gives the standard error. Variants at the background level are over-represented here. Bounds are passed on as bounds.

Common to all, as to conditions: with glucosamine-6-phosphate
Variants of B1 are the subject of series [1]. Description: self-cleavage kobs at 640 uM GlcN6P; higher = faster cleavage; RNA array. A digest of the protocol: (§1)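 Over ~14 h at 37 °C, tiles were imaged as glucosamine-6-phosphate (40 μM to 10 mM) in HEPES/KCl/Mg(OAc)2 buffer flowed across sequenced MiSeq chips. The chips carried barcoded ribozyme variants transcribed in situ by E. coli RNA polymerase and tracked with a hybridised Cy3 probe. After normalisation to baseline and to non-cleaving reference variants, one- or two-exponential decay fits of per-tile medians gave kobs. kcat and KM followed from weighted Michaelis–Menten fits across concentrations.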

The variants in series [2] derive from B1. Description: self-cleavage kobs at 2500 uM GlcN6P; higher = faster cleavage; RNA array. A digest of the protocol:
as §1

Series [3] covers variants of B1. Description: self-cleavage kobs at 40 uM GlcN6P; higher = faster cleavage; RNA array. The gist of the method:
as §1

The variants in series [4] derive from B1. In words: self-cleavage kobs at 160 uM GlcN6P; higher = faster cleavage; RNA array. A digest of the protocol: as §1
In series [5] the parent is B1. Description: self-cleavage kobs at 10000 uM GlcN6P; higher = faster cleavage; RNA array. The gist of the method:
as §1

Turning to G9A A12U U49A, in the series with glucosamine-6-phosphate [1], the “self-cleavage kobs at 640 uM GlcN6P” value is less than 1e-05 s⁻¹. For the same variant, the “self-cleavage kobs at 2500 uM GlcN6P” value with glucosamine-6-phosphate [2] was less than 1e-05 s⁻¹.

Consider A6U G9C A12C A14U, for which, in the series with glucosamine-6-phosphate [1], the “self-cleavage kobs at 640 uM GlcN6P” value is less than 1e-05 s⁻¹. Besides, the “self-cleavage kobs at 2500 uM GlcN6P” value in the series with glucosamine-6-phosphate [2] is less than 1e-05 s⁻¹.

Turning to U47A G59U, in the series with glucosamine-6-phosphate [3], the “self-cleavage kobs at 40 uM GlcN6P” value is less than 1e-05 s⁻¹. Besides, in the series with glucosamine-6-phosphate [4], the “self-cleavage kobs at 160 uM GlcN6P” value was less than 1e-05 s⁻¹.

Regarding C50U C61U, the “self-cleavage kobs at 40 uM GlcN6P” value with glucosamine-6-phosphate [3] was less than 1e-05 s⁻¹. In the series with glucosamine-6-phosphate [1], the “self-cleavage kobs at 640 uM GlcN6P” value is less than 1e-05 s⁻¹. For the same variant, the “self-cleavage kobs at 2500 uM GlcN6P” value with glucosamine-6-phosphate [2] is less than 1e-05 s⁻¹. Further, the “self-cleavage kobs at 10000 uM GlcN6P” value with glucosamine-6-phosphate [5] is less than 1e-05 s⁻¹.

U56G A64G: the “self-cleavage kobs at 40 uM GlcN6P” value in the series with glucosamine-6-phosphate [3] was 0.000369 ± 6.8e-05 s⁻¹. Moreover, the “self-cleavage kobs at 640 uM GlcN6P” value with glucosamine-6-phosphate [1] came out at 0.00313 ± 0.00055 s⁻¹. Besides, the “self-cleavage kobs at 160 uM GlcN6P” value with glucosamine-6-phosphate [4] was 0.000896 ± 0.00017 s⁻¹.

On to U46C G63U C68U, for which the “self-cleavage kobs at 40 uM GlcN6P” value with glucosamine-6-phosphate [3] is less than 1e-05 s⁻¹. The “self-cleavage kobs at 160 uM GlcN6P” value with glucosamine-6-phosphate [4] was less than 1e-05 s⁻¹. In addition, the “self-cleavage kobs at 2500 uM GlcN6P” value in the series with glucosamine-6-phosphate [2] is less than 1e-05 s⁻¹. Also, in the series with glucosamine-6-phosphate [5], the “self-cleavage kobs at 10000 uM GlcN6P” value is less than 1e-05 s⁻¹.

In the case of C8U C10G A14G G59A, in the series with glucosamine-6-phosphate [1], the “self-cleavage kobs at 640 uM GlcN6P” value was less than 1e-05 s⁻¹. In addition, the “self-cleavage kobs at 160 uM GlcN6P” value with glucosamine-6-phosphate [4] is less than 1e-05 s⁻¹.

In the case of U49C G66A, in the series with glucosamine-6-phosphate [3], the “self-cleavage kobs at 40 uM GlcN6P” value is less than 1e-05 s⁻¹.

As for G9A A14C G63A, the “self-cleavage kobs at 640 uM GlcN6P” value in the series with glucosamine-6-phosphate [1] is less than 1e-05 s⁻¹.

Turning to G44C G60C, the “self-cleavage kobs at 40 uM GlcN6P” value in the series with glucosamine-6-phosphate [3] is less than 1e-05 s⁻¹. Moreover, the “self-cleavage kobs at 640 uM GlcN6P” value with glucosamine-6-phosphate [1] was less than 1e-05 s⁻¹. Besides, the “self-cleavage kobs at 160 uM GlcN6P” value with glucosamine-6-phosphate [4] was less than 1e-05 s⁻¹.

As for A6C A53U C58U, the “self-cleavage kobs at 640 uM GlcN6P” value in the series with glucosamine-6-phosphate [1] was less than 1e-05 s⁻¹. Besides, in the series with glucosamine-6-phosphate [2], the “self-cleavage kobs at 2500 uM GlcN6P” value is less than 1e-05 s⁻¹.

Turning to C8U A39G G59U, the “self-cleavage kobs at 640 uM GlcN6P” value with glucosamine-6-phosphate [1] is less than 1e-05 s⁻¹. Also, the “self-cleavage kobs at 2500 uM GlcN6P” value with glucosamine-6-phosphate [2] is less than 1e-05 s⁻¹.

With A48G G59C, the “self-cleavage kobs at 40 uM GlcN6P” value with glucosamine-6-phosphate [3] is less than 1e-05 s⁻¹. Also, the “self-cleavage kobs at 160 uM GlcN6P” value with glucosamine-6-phosphate [4] was less than 1e-05 s⁻¹. Besides, the “self-cleavage kobs at 2500 uM GlcN6P” value in the series with glucosamine-6-phosphate [2] was less than 1e-05 s⁻¹. The “self-cleavage kobs at 10000 uM GlcN6P” value in the series with glucosamine-6-phosphate [5] is less than 1e-05 s⁻¹.

As to A42G U45C, the “self-cleavage kobs at 40 uM GlcN6P” value in the series with glucosamine-6-phosphate [3] turned out to be 5.93e-05 ± 2.9e-05 s⁻¹.

G7U G66A C67U: in the series with glucosamine-6-phosphate [1], the “self-cleavage kobs at 640 uM GlcN6P” value is less than 1e-05 s⁻¹. Besides, the “self-cleavage kobs at 2500 uM GlcN6P” value with glucosamine-6-phosphate [2] is less than 1e-05 s⁻¹.

Take G7A G13A C34U G41C C58A G66U: the “self-cleavage kobs at 640 uM GlcN6P” value with glucosamine-6-phosphate [1] was less than 1e-05 s⁻¹.

For the variant G9A G59A, the “self-cleavage kobs at 640 uM GlcN6P” value with glucosamine-6-phosphate [1] is less than 1e-05 s⁻¹.

Consider A52U U65G G66C, for which, in the series with glucosamine-6-phosphate [3], the “self-cleavage kobs at 40 uM GlcN6P” value is less than 1e-05 s⁻¹.

As to G59A C68A, the “self-cleavage kobs at 40 uM GlcN6P” value with glucosamine-6-phosphate [3] was less than 1e-05 s⁻¹.

Regarding A6G A14C G32U A33U G38A C67G, the “self-cleavage kobs at 640 uM GlcN6P” value with glucosamine-6-phosphate [1] is less than 1e-05 s⁻¹.

Consider C8A A39G C61U, for which, in the series with glucosamine-6-phosphate [1], the “self-cleavage kobs at 640 uM GlcN6P” value was less than 1e-05 s⁻¹. The “self-cleavage kobs at 160 uM GlcN6P” value in the series with glucosamine-6-phosphate [4] was less than 1e-05 s⁻¹.

As to C61A U65C, the “self-cleavage kobs at 40 uM GlcN6P” value with glucosamine-6-phosphate [3] is less than 1e-05 s⁻¹. Further, the “self-cleavage kobs at 640 uM GlcN6P” value with glucosamine-6-phosphate [1] is less than 1e-05 s⁻¹. Besides, in the series with glucosamine-6-phosphate [4], the “self-cleavage kobs at 160 uM GlcN6P” value was less than 1e-05 s⁻¹. In addition, the “self-cleavage kobs at 2500 uM GlcN6P” value with glucosamine-6-phosphate [2] is less than 1e-05 s⁻¹.

C8U G13A U46A G51C G59A: the “self-cleavage kobs at 640 uM GlcN6P” value with glucosamine-6-phosphate [1] was less than 1e-05 s⁻¹.

In the case of A64U G66C, in the series with glucosamine-6-phosphate [3], the “self-cleavage kobs at 40 uM GlcN6P” value is less than 1e-05 s⁻¹.

Regarding G9A G35U C71A, the “self-cleavage kobs at 640 uM GlcN6P” value with glucosamine-6-phosphate [1] was less than 1e-05 s⁻¹. Further, in the series with glucosamine-6-phosphate [2], the “self-cleavage kobs at 2500 uM GlcN6P” value is less than 1e-05 s⁻¹.

Regarding G9A G44U A52G U65G, the “self-cleavage kobs at 640 uM GlcN6P” value with glucosamine-6-phosphate [1] was less than 1e-05 s⁻¹. Moreover, the “self-cleavage kobs at 2500 uM GlcN6P” value with glucosamine-6-phosphate [2] is less than 1e-05 s⁻¹.

Take G9A G66U C68G: the “self-cleavage kobs at 640 uM GlcN6P” value in the series with glucosamine-6-phosphate [1] was less than 1e-05 s⁻¹. Besides, the “self-cleavage kobs at 2500 uM GlcN6P” value in the series with glucosamine-6-phosphate [2] was less than 1e-05 s⁻¹.

For U45G A64G, the “self-cleavage kobs at 40 uM GlcN6P” value with glucosamine-6-phosphate [3] was found to be 0.000169 ± 2.8e-05 s⁻¹. The “self-cleavage kobs at 640 uM GlcN6P” value in the series with glucosamine-6-phosphate [1] was found to be 0.00161 ± 0.0003 s⁻¹. Moreover, in the series with glucosamine-6-phosphate [4], the “self-cleavage kobs at 160 uM GlcN6P” value came to 0.000411 ± 0.00011 s⁻¹. For the same variant, in the series with glucosamine-6-phosphate [2], the “self-cleavage kobs at 2500 uM GlcN6P” value was found to be 0.00451 ± 0.00092 s⁻¹. Besides, the “self-cleavage kobs at 10000 uM GlcN6P” value with glucosamine-6-phosphate [5] is 0.00759 ± 0.002 s⁻¹.

These data come from the supplement of paper PMC7125110.
